# Assay results published in the supplement of paper PMC10037445.
# Whole data set: some 2,900 compounds, median “NF-kB SEAP reporter activity, fold change vs agonist alone” near 0.99, cut for the highest 2% near 2.6. The list shows a part of the results.
# Experiments:
# [1] = system: RAW-Dual; assay: NF-kB SEAP reporter activity, fold change vs agonist alone; higher = enhanced NF-kB activity; conditions: library stock concentration (final ~1000-fold dilution): 10 mM
# Outline: (§1)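 Reporter activity is given as fold change relative to agonist-alone wells. To measure it, 50 nL of library stock was pin-tooled onto RAW-Dual macrophages (50,000 cells/well, DMEM, 384-well plates), a PRR agonist followed 1 h later, and cells stayed at 37 °C, 5% CO2. Twenty hours on, supernatant was assayed for IRF (QuantiLuc luminescence) and NF-κB (QuantiBlue, 620 nm absorbance), and wells under 70% of agonist-control IncuCyte confluency in both mask sets were marked cytotoxic.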
# [2] = system: RAW-Dual; assay: NF-kB SEAP reporter activity, fold change vs agonist alone; cytotoxicity flag (confluency mask): cytotoxic (confluency <70% of control); higher = enhanced NF-kB activity
# Outline: as §1
# [3] = system: RAW-Dual; assay: NF-kB SEAP reporter activity, fold change vs agonist alone; cytotoxicity flag (confluency mask): not cytotoxic; higher = enhanced NF-kB activity
# Outline: as §1
# [4] = agonist: ODN 1826 (TLR9) 0.5 ug/mL
# [5] = agonist: Pam2CSK4 (TLR2/6) 0.1 ug/mL
# [6] = agonist: Pam3CSK4 (TLR2/1) 0.1 ug/mL
# [7] = cytotoxicity flag (confluency mask): not cytotoxic, agonist: Imiquimod (TLR7) […]
# [8] = cytotoxicity flag (confluency mask): not cytotoxic, agonist: MPLA (TLR4) […]
compound,measurement,setting,value
CCCCc1oc2ccc(NS(C)(=O)=O)cc2c1C(=O)c1ccc(OCCCN(CCCC)CCCC)cc1,NF-kB SEAP reporter activity,"[1]; cytotoxicity flag (confluency mask): cytotoxic (confluency <70% of control), agonist: Imiquimod (TLR7) […]",2.27
same,NF-kB SEAP reporter activity,"[1]; cytotoxicity flag (confluency mask): cytotoxic (confluency <70% of control), agonist: MPLA (TLR4) […]",1.17
CCCCc1oc2ccc(NS(C)(=O)=O)cc2c1C(=O)c1ccc(OCCCN(CCCC)CCCC)cc1 (library stock concentration (final ~1000-fold dilution): 10 mM),NF-kB SEAP reporter activity,[2]; agonist: LPS (TLR4) 0.1 ug/mL,0.456
same,NF-kB SEAP reporter activity,[2]; [4],0.256
same,NF-kB SEAP reporter activity,[2]; [5],0.38
same,NF-kB SEAP reporter activity,[2]; [6],0.249
COc1cccc2c1C(=O)c1c(O)c3c(c(O)c1C2=O)CC(O)(C(=O)CO)CC3OC1CC(N)C(O)C(C)O1 (stereo not drawn) (library stock concentration (final ~1000-fold dilution): 10 mM),NF-kB SEAP reporter activity,[3]; agonist: LPS (TLR4) 0.1 ug/mL,0.284
same,NF-kB SEAP reporter activity,[3]; [4],0.184
same,NF-kB SEAP reporter activity,[3]; [5],0.0946
same,NF-kB SEAP reporter activity,[3]; [6],0.139
COc1cccc2c1C(=O)c1c(O)c3c(c(O)c1C2=O)CC(O)(C(=O)CO)CC3OC1CC(N)C(O)C(C)O1 (stereo not drawn),NF-kB SEAP reporter activity,[1]; [7],0.2
same,NF-kB SEAP reporter activity,[1]; [8],0.213
COc1cc(Nc2c(C#N)cnc3cc(OCCCN4CCN(C)CC4)c(OC)cc23)c(Cl)cc1Cl (library stock concentration (final ~1000-fold dilution): 10 mM),NF-kB SEAP reporter activity,[3]; agonist: LPS (TLR4) 0.1 ug/mL,1.62
same,NF-kB SEAP reporter activity,[3]; [4],1.94
same,NF-kB SEAP reporter activity,[3]; [5],1.45
same,NF-kB SEAP reporter activity,[3]; [6],1.77
COc1cc(Nc2c(C#N)cnc3cc(OCCCN4CCN(C)CC4)c(OC)cc23)c(Cl)cc1Cl,NF-kB SEAP reporter activity,[1]; [7],1.84
same,NF-kB SEAP reporter activity,[1]; [8],1.51
Clc1ccc(N/N=C(\c2ccccc2)c2ccccn2)nc1 (library stock concentration (final ~1000-fold dilution): 10 mM),NF-kB SEAP reporter activity,[3]; agonist: LPS (TLR4) 0.1 ug/mL,4.59
same,NF-kB SEAP reporter activity,[3]; [4],1.18
same,NF-kB SEAP reporter activity,[3]; [5],0.556
same,NF-kB SEAP reporter activity,[3]; [6],1.76
Clc1ccc(N/N=C(\c2ccccc2)c2ccccn2)nc1,NF-kB SEAP reporter activity,[1]; [7],1.5
same,NF-kB SEAP reporter activity,[1]; [8],2.77
CCC1(O)CC2CN(CCc3c([nH]c4ccccc34)C(C(=O)OC)(c3cc4c(cc3OC)N(C=O)C3C(O)(C(=O)OC)C(OC(C)=O)C5(CC)C=CCN6CCC43C65)C2)C1.O=S(=O)(O)O (stereo not drawn) (library stock concentration (final ~1000-fold dilution): 10 mM),NF-kB SEAP reporter activity,[3]; agonist: LPS (TLR4) 0.1 ug/mL,5.34
same,NF-kB SEAP reporter activity,[3]; [4],3.28
CC1CC(=O)Nc2cccc(-c3ccc4c(c3)c(-c3cnn(C)c3)nn4C)c2N1 (stereo not drawn) (library stock concentration (final ~1000-fold dilution): 10 mM),NF-kB SEAP reporter activity,[3]; agonist: LPS (TLR4) 0.1 ug/mL,3.26
same,NF-kB SEAP reporter activity,[3]; [4],2.08
same,NF-kB SEAP reporter activity,[3]; [5],0.673
same,NF-kB SEAP reporter activity,[3]; [6],1.28
CC1CC(=O)Nc2cccc(-c3ccc4c(c3)c(-c3cnn(C)c3)nn4C)c2N1 (stereo not drawn),NF-kB SEAP reporter activity,[1]; [7],1.46
same,NF-kB SEAP reporter activity,[1]; [8],2.15
Cc1ccc(C(=O)C(C)CN2CCCCC2)cc1.Cl (stereo not drawn) (library stock concentration (final ~1000-fold dilution): 10 mM),NF-kB SEAP reporter activity,[3]; agonist: LPS (TLR4) 0.1 ug/mL,1.09
same,NF-kB SEAP reporter activity,[3]; [4],0.891
same,NF-kB SEAP reporter activity,[3]; [5],1.04
same,NF-kB SEAP reporter activity,[3]; [6],1.06
Cc1ccc(C(=O)C(C)CN2CCCCC2)cc1.Cl (stereo not drawn),NF-kB SEAP reporter activity,[1]; [7],0.909
same,NF-kB SEAP reporter activity,[1]; [8],1.06
